The structures appear in SMILES notation. The campaign covered roughly 43,000 compounds. About 200 (0.47%) were called active. Not shown: some 12% with an inconclusive outcome. Calls come from the whole dose curve; as a rule, active = well fitted cell-killing curve with a large enough effect; inconclusive = small, poorly fitted or top-dose-only effect, or effect the other way; inactive = flat fitted curve, though single readings scatter. Some of the results follow.
% is set by controls: 0 for no effect and ±100 for the full control effect; potency is the fitted concentration of half-maximal effect.

The assay is described as follows: Cell viability qHTS assay in S16 Pmp22-F2sN cells. Note: nearly all actives have a fitted effect of over 65% in size. The following applies: S16 Pmp22-F2sN Schwann cells (luciferase reporters placed in the Pmp22 gene) viability, CellTiter-Glo, 24 h; series mostly up to 57.5 µM; activity change, negative = cytotoxicity: at the top concentration. Put shortly: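 S16 Schwann cells carrying the Pmp22-F2sN reporter, seeded in 1536-well format, were exposed to library compounds for 24 h at 37C. Viability was read as CellTiter-Glo luminescence after 15 min at room temperature.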
On the technique in general: In qHTS, concentration-response curves come from the screen itself.
As for `COc1ccc(CCNC(=O)Cc2c(C)c3cc4c(C(C)(C)C)coc4c(C)c3oc2=O)cc1`, the “activity change, negative = cytotoxicity” value was inactive: 2.08%.

Take `COc1cc(NC(=O)CSc2nc3ncccc3o2)cc(OC)c1`: the “activity change, negative = cytotoxicity” value is inactive: 5.36%.

As to `CCC(C(=O)Nc1ccc(C)c(C)c1)n1c(=O)c(C(F)(F)F)nc2ccccc21` (stereo not drawn), the “activity change, negative = cytotoxicity” value was inactive: 20.6%.

On to `Cc1ccc(CNC(=O)CCCn2c(=O)c3ccccc3n(CC(=O)Nc3ccc(C)cc3)c2=O)cc1`, for which the “activity change, negative = cytotoxicity” value is inactive: 3.09%.

On to `COc1ccc(-c2nc(CS(=O)(=O)CC(=O)NCc3ccccc3Br)c(C)o2)cc1`, for which the “activity change, negative = cytotoxicity” value is inactive: 13.6%.

For the compound `O=C(NCCCN1CCCCCC1)c1ccc2c(c1)sc1nc(-c3ccccc3)cn12`, the “activity change, negative = cytotoxicity” value was inactive: 2.38%.

Turning to `COc1cccc(NC(=O)Cn2c(=O)n(CCC(=O)NCCc3ccc(Cl)cc3)c(=O)c3ccccc32)c1`, the “activity change, negative = cytotoxicity” value was inactive: 17.7%.

As for `CCOC(=O)c1c(NC(=O)COc2ccc(Cl)cc2C)sc2c1CCCCC2`, the “activity change, negative = cytotoxicity” value was inactive: 3.55%.

On to `Cc1ccc(CNC(=O)CS(=O)(=O)c2cccc3nsnc23)cc1`, for which the “activity change, negative = cytotoxicity” value was inactive: 6.44%.

Consider `CCOc1ccc(N2CC(c3nc4ccccc4n3CCOc3ccccc3OC)CC2=O)cc1` (stereo not drawn), for which the “activity change, negative = cytotoxicity” value is inactive: -35.5%.

On to `O=C1CC(c2nc(-c3ccccc3)no2)CN1c1ccccc1` (stereo not drawn), for which the “activity change, negative = cytotoxicity” value was inactive: 6.91%.

With `CCc1nc2ccc(C(=O)NCc3cc(OC)ccc3OC)cc2nc1CC`, the “activity change, negative = cytotoxicity” value is inactive: -6.77%.

Consider `Cc1ccc(-c2nc3ncccn3c2Nc2ccc3c(c2)OCCO3)cc1`, for which the “activity change, negative = cytotoxicity” value was inactive: 8.42%.

In the case of `CCc1ccc(CNc2ccc3c(c2)ncn3C(C)(C)C)cc1`, the “activity change, negative = cytotoxicity” value was inactive: -11.5%.

Turning to `O=C(CCS(=O)(=O)c1ccc(Br)cc1)Nc1ccc(F)cc1F`, the “activity change, negative = cytotoxicity” value was inactive: -3.11%.

On to `COc1cccc2c1cc1c(=O)n(CC(=O)N3CCN(c4ccccc4)CC3)nc(C)n12`, for which the “activity change, negative = cytotoxicity” value was inactive: -1.19%.

Regarding `Cc1cc(OC(C)C(=O)Nc2cccc(-c3nc4ccccc4o3)c2)cc(C)c1Cl` (stereo not drawn), the “activity change, negative = cytotoxicity” value is inactive: 12%.

`COc1ccc(-c2nc(CSCC(=O)N3CCN(c4cc(Cl)ccc4C)CC3)c(C)o2)cc1`: the “activity change, negative = cytotoxicity” value is inactive: -17%.

As to `Cc1ccc(Cn2c(C)c3cnn(CC(=O)NCc4ccccc4)c(=O)c3c2C)cc1`, the “activity change, negative = cytotoxicity” value is inactive: -17.9%.

Turning to `CC(=O)N1CCc2cc(S(=O)(=O)CCC(=O)Nc3ccc(C)cc3Br)ccc21`, the “activity change, negative = cytotoxicity” value was inactive: -1.43%.

On to `CCOc1ccc(CCNC(=O)CS(=O)(=O)Cc2nc(-c3ccc(OC)cc3)oc2C)cc1`, for which the “activity change, negative = cytotoxicity” value is inactive: 1.83%.

For the compound `Cc1cccc2sc(N(CCN(C)C)C(=O)c3ccc4c(c3)OCCO4)nc12`, the “activity change, negative = cytotoxicity” value was inactive: -5.93%.

For the compound `COc1ccc(Cn2c(=O)n(Cc3ccco3)c(=O)c3oc4ccccc4c32)cc1`, the “activity change, negative = cytotoxicity” value was inactive: 1.58%.

In the case of `CCn1c(=N)c(C(=O)NCc2ccccc2)cc2c(=O)n3cccc(C)c3nc21`, the “activity change, negative = cytotoxicity” value was inactive: 5.84%.

As to `Cc1cccc(-c2nc(C)c(CCNC(=O)C(=O)Nc3ccccc3C#N)s2)c1`, the “activity change, negative = cytotoxicity” value is inactive: 27.2%.

As for `CC(C)c1ccc(C2NC(=O)c3n[nH]c(-c4cccs4)c32)cc1` (stereo not drawn), the “activity change, negative = cytotoxicity” value is inactive: -21.2%.

Turning to `COc1ccc(Cl)cc1S(=O)(=O)NCc1ccc2c(c1)CCN2C(=O)c1cccc(C)c1`, the Potency was active: 14.1 µM.

As for `Cc1cccc(NC(=O)CSc2nc(-c3ccccc3)cc(=O)[nH]2)c1C`, the “activity change, negative = cytotoxicity” value was inactive: -0.22%.

With `Cc1ccc(C(C)C)c(OCC(O)CN2CCN(c3ccccc3F)CC2)c1` (stereo not drawn), the “activity change, negative = cytotoxicity” value was inactive: 1.92%.

As for `Cc1ccc(NC(=O)CCC(=O)N2Cc3ccccc3Oc3ncccc32)c(C)c1`, the “activity change, negative = cytotoxicity” value is inactive: -16.8%.

`CCOc1ccc(CCNC(=O)CN2C(=O)COc3ccc(S(=O)(=O)N4CCCC4)cc32)cc1`: the “activity change, negative = cytotoxicity” value was inactive: 4.18%.

With `CCOC(=O)C1CCCN(C(=O)c2ccc3c(c2)sc2nc(-c4ccc(CC)cc4)cn23)C1` (stereo not drawn), the “activity change, negative = cytotoxicity” value is inactive: -24%.

`Cc1ccc(CNC(=O)C(C)n2nc(C)n3c(cc4sccc43)c2=O)cc1` (stereo not drawn): the “activity change, negative = cytotoxicity” value was inactive: 4%.

`COc1ccccc1C(=O)Nc1cccc(C(=O)OCc2cc(=O)n3ccsc3n2)c1`: the “activity change, negative = cytotoxicity” value was inactive: 2.26%.

Take `Cc1ccc(S(=O)(=O)N(CC(=O)Nc2ccc(Cl)cc2Cl)c2ccccc2C)cc1`: the “activity change, negative = cytotoxicity” value is inactive: 0.651%.

On to `CCOC(=O)c1ccc(N2C(=O)c3n[nH]c(-c4ccco4)c3C2c2cccc(OC)c2)cc1` (stereo not drawn), for which the “activity change, negative = cytotoxicity” value is inactive: -15.1%.

On to `COC(=O)c1ccc2c(=O)n(CCCCCC(=O)NCCc3ccc(Cl)cc3)c(=O)[nH]c2c1`, for which the “activity change, negative = cytotoxicity” value is inactive: 2.13%.

As to `Cc1oc(-c2ccc(C(=O)NCc3cccc(F)c3)cc2)nc1COc1ccccc1`, the “activity change, negative = cytotoxicity” value was inactive: 15%.

In the case of `N#Cc1c(C(F)(F)F)cc(-c2ccc(F)cc2)nc1SCC(=O)Nc1ccccc1`, the “activity change, negative = cytotoxicity” value was inactive: -3.61%.

Consider `CCn1c(C(=O)N2CCC(C(=O)NCCc3ccc(C)cc3)CC2)cc2sccc21`, for which the “activity change, negative = cytotoxicity” value was inactive: -4.94%.

As for `Cc1ccc(Cn2ccnc2SCC(=O)NCc2ccccc2Cl)cc1`, the “activity change, negative = cytotoxicity” value is inactive: 13.9%.

With `O=C1c2[nH]nc(-c3ccccc3O)c2C(c2ccc(Cl)cc2)N1Cc1ccco1` (stereo not drawn), the “activity change, negative = cytotoxicity” value is inactive: -24.6%.

Regarding `CCN1CCN(C(=O)c2cnn(-c3ccc(F)cc3)c2-n2cccc2)CC1`, the “activity change, negative = cytotoxicity” value is inactive: -4.43%.

Consider `Cc1ccc(C2C=C(c3ccc(Cl)cc3)Nc3nc(NS(=O)(=O)c4ccccc4)nn32)cc1` (stereo not drawn), for which the “activity change, negative = cytotoxicity” value was inactive: -3.52%.

In the case of `COc1ccccc1NC(=O)Cn1c(=O)n(-c2cccc(C(C)=O)c2)c(=O)c2c3c(sc21)CN(C(C)=O)CC3`, the “activity change, negative = cytotoxicity” value was inactive: 0.309%.

For `Cc1ccc(CNC(=O)CCCCn2c(=O)c3ccccc3n(Cc3c(C)cc(C)cc3C)c2=O)cc1`, the “activity change, negative = cytotoxicity” value is inactive: -0.11%.

With `COc1cccc(NC(=O)CSC2=Nc3ccccc3C3=NC(CC(=O)NCCc4ccccc4)C(=O)N23)c1` (stereo not drawn), the “activity change, negative = cytotoxicity” value was inactive: -0.774%.

As to `CCOC(=O)c1ccccc1NC(=O)Cn1c(=O)n(Cc2nc(-c3ccccc3)no2)c(=O)c2ccccc21`, the “activity change, negative = cytotoxicity” value was inactive: -4.88%.
